Measurements taken from PubChem BioAssay AID1963576 (National Center for Advancing Translational Sciences (NCATS), 2024).
Among all 46,000 compounds or so, about 60 (0.1%) were called active. Roughly 3% stayed inconclusive and do not appear here. Calls come from the whole dose curve; as a rule, active = well fitted inhibition curve with a large enough effect; inconclusive = small, poorly fitted or top-dose-only effect; inactive = no such curve, though single readings can be large or run the other way. This is one part of the list.

Assay: Primary qHTS assay for Inhibitors of ovarian cancer metastasis using an organotypic tumor microenvironment (TME) model.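 For activity change, negative = inhibition: plate controls were DMSO wells for no effect and tomatine positive control wells for full effect.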 Note: nearly all actives have a fitted effect of over 65% in size.
Details: SKOV3ip1-GFP adhesion/invasion on 3D omental model, fluorescence; series mostly up to 45.8 µM; activity change, negative = inhibition: at the top concentration
In short: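 qHTS, 4-pt dose (0.36-46 umol/L); SKOV3ip1-GFP, 1,200 cells/well, no FBS; primary omental fibroblast/mesothelial co-culture 48 h pre-grown; 2 h RT + 16 h 37 C; PBS wash, 4% PFA; GFP count 488/509 nm.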

Row | SMILES | activity change, negative = inhibition | outcome
1 | CCc1nn(CC(=O)N(C)Cc2ccccc2)c(=O)c2cc3sccc3n12 | inactive: 23.2% | –
2 | COC(=O)c1sccc1S(=O)(=O)N(CC(=O)Nc1ccccc1F)c1ccccc1 | inactive: -3.69% | –
3 | CN(Cc1ccccc1)c1ncnc2c1nnn2C | inactive: -4.07% | –
4 | O=S(=O)(NCC(c1ccco1)S(=O)(=O)c1cccs1)c1ccc(Cl)cc1 (stereo unspecified) | inactive: -25.7% | –
5 | O=c1oc2c3c(ccc2c2ccccc12)OCN(Cc1ccccc1Cl)C3 | inactive: -1.97% | –
6 | COc1ccc(-c2nnc(SCC(=O)N(C)C3CCCCC3)o2)cc1OC | inactive: -24.1% | –
7 | CCOc1ccc(C(=O)c2oc3ccccc3c2NC(=O)c2cc(-c3ccc(Cl)cc3)on2)cc1 | inactive: -0.75% | –
8 | COC(=O)c1c(NC(=O)Cc2coc3ccc(C(C)C)cc23)sc2c1CCC2 | inactive: 1.82% | –
9 | O=C(CCCCn1c(=O)c2ccccc2n(CC(=O)Nc2ccc(F)cc2F)c1=O)NCCc1ccccc1 | – | inactive
10 | Cc1ccc(NC(=O)Nc2ccccc2OCc2cc(=O)n3ccccc3n2)c(Cl)c1 | inactive: -3.98% | –
11 | CCn1cc(C(=O)NCCCOC)c(=O)c2cc(S(=O)(=O)N3CCCC3)ccc21 | inactive: 5.99% | –
12 | Cc1cccc(C(=O)n2nc(-c3cccnc3)nc2NCc2ccccc2)c1 | inactive: -3.67% | –
13 | Cc1ccc(C(=O)NCCc2ccc(S(N)(=O)=O)cc2)cc1-n1cnc2cccnc21 | – | inactive
14 | Cc1ccc(C(=O)COC(=O)c2cccc(NC(=O)c3ccc(Cl)cc3Cl)c2)cc1 | inactive: -7.02% | –
15 | CCC(C(=O)NCc1ccc(OC)c(OC)c1)n1nc(C)c2c(C)n(-c3ccc(C)cc3)nc2c1=O (stereo unspecified) | inactive: -9.21% | –
16 | CCOC(=O)c1c(NC(=O)c2cc3nc(-c4ccc(Br)cc4)cc(C(F)(F)F)n3n2)sc(C(C)=O)c1C | – | inactive
17 | Cc1cc(NC(=O)c2ccc3c(c2)OCCO3)cc(-c2nc3ccccc3o2)c1O | inactive: -15.1% | –
18 | Cc1ccc(NS(=O)(=O)c2cc(-c3cnc(C4CC4)o3)ccc2C)cc1Cl | inactive: -28.6% | –
19 | Nc1c(C(=O)Nc2ccccc2F)sc2nc3c(cc12)CCCCCC3 | – | inactive
20 | COc1ccc(NC(=O)N2CCOc3ccc(Cl)cc32)cc1 | inactive: 48.8% | –
21 | COc1cc(C(=O)Nc2ccc3c(c2)N(C2CCCC2)C(=O)c2ccccc2S3)cc(OC)c1OC | inactive: 0.159% | –

Row | SMILES | activity change, negative = inhibition | outcome
22 | CCOc1ccccc1NC(=O)C1CCCN1S(=O)(=O)c1ccc2c(c1)C(C)(C)C(=O)N2C (stereo unspecified) | inactive: -0.236% | –
23 | CCOc1ccccc1NC(=O)CCNS(=O)(=O)c1cccc2nonc12 | inactive: -21.1% | –
24 | CC(C)Oc1ccc(C(=O)NCC(c2ccc(N(C)C)cc2)N2CCCC2)cc1 (stereo unspecified) | inactive: -14.1% | –
25 | Cc1ccc(C)c(NC(=O)Cn2cc(C(=O)c3cccs3)c3ccccc32)c1 | inactive: 1.69% | –
26 | CCc1ccc(NC(=O)CCNS(=O)(=O)c2ccc3c(c2)oc(=O)n3C)cc1 | inactive: 18.6% | –
27 | CCOC(=O)c1ccccc1NC(=O)CN1CCCN(Cc2cccc(Cl)c2)S1(=O)=O | inactive: 6.59% | –
28 | CCc1ccccc1NC(=O)CN1CCCN(Cc2cc(C)ccc2C)S1(=O)=O | inactive: 13.4% | –
29 | CCCCNC(=O)c1cc(-c2ccc(OC)cc2)nc2n[nH]c(-c3cccc([N+](=O)[O-])c3)c12 | inactive: -3.76% | –
30 | COc1ccc(Cl)cc1N(C)C(=O)c1cc2c(=O)oc3ccc(C)cc3c2s1 | inactive: -5.93% | –
31 | COc1ccc(Cc2nc3c4cnn(-c5ccccc5F)c4ncn3n2)cc1 | inactive: -5.81% | –
32 | COc1ccc(C(=O)NNc2ncnc3c2cnn3-c2cccc(Cl)c2)cc1OC | inactive: -15.9% | –
33 | COc1ccc(C(C)=O)cc1CSc1nc(NCCc2ccccc2)c2ccccc2n1 | inactive: -2.17% | –
34 | CCN(CC)c1ccc(C(=O)NCc2ccc3c(c2)CCN3C(=O)c2ccc(F)cc2)cc1 | inactive: 0.314% | –
35 | Cc1ccc(CNC(=O)c2ccc3c(c2)nc2n3CCOC2)cc1 | inactive: 12.2% | –
36 | Cc1ccc(-n2nc(C)c3c(C(=O)NCCc4ccccc4)cc(C)nc32)cc1 | inactive: 4.63% | –
37 | COc1ccccc1-c1cc(C(=O)Nc2cc(OC)c(OC)c(OC)c2)no1 | inactive: -25.7% | –
38 | CCN(CC)CCCNC(=O)c1nn(C)c2c1CSc1ccccc1-2 | inactive: -9.27% | –
39 | COc1ccc(Cl)cc1CNCCSc1nnnn1-c1ccccc1 | inactive: -1.05% | –
40 | COc1ccc(C2NC(=O)N(C)C3=C2C(=O)N(c2cccc(C(=O)O)c2)C3)cc1 (stereo unspecified) | inactive: -5.65% | –
41 | Cc1cccc(N(CC(=O)NCCSCc2cccc(Cl)c2)S(=O)(=O)c2ccccc2)c1C | inactive: -3.18% | –
42 | CCCS(=O)(=O)c1c(S(=O)(=O)CCC)c2cc(CC)ccn2c1C(=O)c1ccc(Cl)cc1 | inactive: 0.728% | –

Row | SMILES | activity change, negative = inhibition | outcome
43 | Cc1ccc(NC(=O)C2CCN(S(=O)(=O)c3c(C)noc3/C=C/c3cccs3)CC2)cc1F | inactive: 7.88% | –
44 | COc1ccc(NC(=O)CCc2nc3c(C)nn(-c4ccc(C)cc4)c3n(C)c2=O)cc1 | inactive: -1.04% | –
45 | COc1ccc(-c2ccc(CCC(=O)O)n2-c2ccccc2O)cc1 | inactive: -9.98% | –
46 | Cc1cccc(Cn2cc(C(=O)Nc3cc(F)ccc3F)ccc2=O)c1 | inactive: 2.03% | –
47 | COc1ccc(N2C(=O)Cc3cc(OC)c(OC)cc3C2c2ccc(F)cc2)cc1 (stereo unspecified) | inactive: 0.453% | –
48 | CC(CCc1ccccc1)NC(=O)CSc1n[nH]c(-c2ccc(F)cc2)n1 (stereo unspecified) | inactive: -5% | –
49 | COc1ccc(S(=O)(=O)Nc2cc3c(C(=O)OC(C)C)c(C)oc3c3ccccc23)cc1 | inactive: 3.34% | –
50 | COc1ccc(CNC(=O)CN2C(=O)CCn3nc(-c4ccccc4)cc32)c(OC)c1 | inactive: -18.5% | –
51 | Cc1cc(OCC(O)CN2CCN(c3cccc(Cl)c3)CC2)ccc1Cl (stereo unspecified) | – | inactive
52 | COc1ccc(C(=O)Nc2ccc(S(=O)(=O)N(Cc3ccccc3)c3ccccc3)cc2)cc1 | inactive: -2.27% | –
53 | COc1ccc(OC)c(CNC(=O)C2CCCCN2S(=O)(=O)c2ccc(F)cc2)c1 (stereo unspecified) | – | inactive
54 | COc1ccc(-c2nn3c(=O)cc(CN4CCN(S(=O)(=O)c5ccc(C)cc5)CC4)nc3s2)cc1 | inactive: 1.91% | –
55 | Cn1c(Nc2ccc(Cl)cc2)cc(=O)n(C)c1=O | inactive: 3.66% | –
56 | CC1=C(C(=O)Nc2ccc(C)cc2C)C(c2ccc(O)cc2)n2nc(SCC(=O)c3ccc(C)cc3)nc2N1 (stereo unspecified) | inactive: 4.53% | –
57 | COc1ccc(-c2nc(Cn3c(SCc4cccc(C(F)(F)F)c4)nc4cccnc43)c(C)o2)cc1OC | inactive: -3.01% | –
58 | COc1ccc(C(=O)c2sc3nc(-c4ccc(F)cc4)ccc3c2N)cc1 | inactive: -1.05% | –
59 | Cc1oc2ncn(C)c(=O)c2c1C(=O)NCc1ccc(Cl)cc1 | inactive: 1.31% | –
60 | COc1ccc(C)cc1NC(=O)c1cn(C)c(=O)c2cc(OC)c(OC)cc12 | – | inactive
61 | COc1cccc(NS(=O)(=O)c2ccc3c(c2)N(C)C(=O)CC(=O)N3C)c1 | inactive: 3.53% | –
